{
  "source": "the supplement of paper PMC6531468",
  "note": "This is one part of the list. Values come from read counts of a selection and are noisy. Each score is taken over the longer molecules that contain the sequence shown.",
  "data": [
    {"system": "IMP3 KH3-4", "sequence (chain, as listed by the source)": "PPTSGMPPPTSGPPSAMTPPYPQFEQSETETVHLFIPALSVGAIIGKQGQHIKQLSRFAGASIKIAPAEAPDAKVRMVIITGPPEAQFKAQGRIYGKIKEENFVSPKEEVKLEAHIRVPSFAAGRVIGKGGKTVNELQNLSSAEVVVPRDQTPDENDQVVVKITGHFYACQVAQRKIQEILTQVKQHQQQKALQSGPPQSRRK", "experiment": "6-mer SELEX enrichment z-score vs GST control; IMP3 is the RNA-binding protein IGF2BP3; higher = more enriched by binding", "settings": "construct: KH3-4 (377-579); SELEX round: R4", "experimental": "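SELEX-seq with GST-tagged IMP3 KH3-4 (Pro377-Lys579) and an N40 RNA pool, round 4. 6-mer z-score of sequence-tag enrichment normalised to the corresponding GST SELEX round; RNA k-mers written as DNA (T for U).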", "values": [
      {"sequence": "ACATCA", "6-mer SELEX enrichment z-score": 0.735},
      {"sequence": "TGATGC", "6-mer SELEX enrichment z-score": -0.056},
      {"sequence": "GGTCAA", "6-mer SELEX enrichment z-score": 0.133},
      {"sequence": "TATTCA", "6-mer SELEX enrichment z-score": 1.14},
      {"sequence": "GTTGTA", "6-mer SELEX enrichment z-score": 0.047},
      {"sequence": "AGGGAC", "6-mer SELEX enrichment z-score": 0.11},
      {"sequence": "CAAACC", "6-mer SELEX enrichment z-score": -2.74},
      {"sequence": "TCCACC", "6-mer SELEX enrichment z-score": -1.23},
      {"sequence": "ACTTTG", "6-mer SELEX enrichment z-score": 0.112},
      {"sequence": "GCAGAT", "6-mer SELEX enrichment z-score": 0.398},
      {"sequence": "TTGGAG", "6-mer SELEX enrichment z-score": 0.025},
      {"sequence": "ATGACT", "6-mer SELEX enrichment z-score": 0.716},
      {"sequence": "TGGGAG", "6-mer SELEX enrichment z-score": 0.742},
      {"sequence": "GCAATG", "6-mer SELEX enrichment z-score": 0.525},
      {"sequence": "CCTATT", "6-mer SELEX enrichment z-score": 0.261},
      {"sequence": "AACGTC", "6-mer SELEX enrichment z-score": -1.39},
      {"sequence": "GACCCT", "6-mer SELEX enrichment z-score": -1.38},
      {"sequence": "AAAGTT", "6-mer SELEX enrichment z-score": -0.04},
      {"sequence": "TGGGCT", "6-mer SELEX enrichment z-score": 0.142},
      {"sequence": "GATTCT", "6-mer SELEX enrichment z-score": 0.377},
      {"sequence": "TGGATT", "6-mer SELEX enrichment z-score": 0.586},
      {"sequence": "GGCTGG", "6-mer SELEX enrichment z-score": 0.51},
      {"sequence": "TAAATT", "6-mer SELEX enrichment z-score": 1.94},
      {"sequence": "TACCAG", "6-mer SELEX enrichment z-score": -0.529},
      {"sequence": "CACAAT", "6-mer SELEX enrichment z-score": 1.42},
      {"sequence": "ACCTTG", "6-mer SELEX enrichment z-score": -1.31},
      {"sequence": "CTGCTT", "6-mer SELEX enrichment z-score": 0.231},
      {"sequence": "CAGGCG", "6-mer SELEX enrichment z-score": 0.075},
      {"sequence": "GGACTC", "6-mer SELEX enrichment z-score": -0.698},
      {"sequence": "TGAACG", "6-mer SELEX enrichment z-score": -0.627},
      {"sequence": "TGGGGG", "6-mer SELEX enrichment z-score": 1.4},
      {"sequence": "AACGGA", "6-mer SELEX enrichment z-score": -0.028},
      {"sequence": "CTTTAA", "6-mer SELEX enrichment z-score": 1.04},
      {"sequence": "CAACAC", "6-mer SELEX enrichment z-score": -0.461},
      {"sequence": "CATAAA", "6-mer SELEX enrichment z-score": 1.95},
      {"sequence": "AGTGGG", "6-mer SELEX enrichment z-score": 0.549},
      {"sequence": "TTCGAG", "6-mer SELEX enrichment z-score": -1.07},
      {"sequence": "CAGCAT", "6-mer SELEX enrichment z-score": 0.047},
      {"sequence": "ATTTTG", "6-mer SELEX enrichment z-score": 0.537},
      {"sequence": "ACTGCT", "6-mer SELEX enrichment z-score": 0.186}
    ]}
  ]
}
